According to the supplement of paper PMC7826260:
Some of the results follow. One pool of 16,384 single-stranded DNAs met each Rep nickase domain in vitro (1 h at 37 °C, 3 µM enzyme); the outer parts of the 90-letter strands are left off. A value is the log2 ratio of uncut reads to the pool without enzyme; strong cutting gives strongly negative numbers. There is no active / inactive call. Reads are scaled to the total; uncut strands gain when others are lost, and binding without cutting may add a little.

Key:
Assay in all cases: uncleaved DNA left, log2 of reads against the no-enzyme library (log2 ratio); higher = less cleavage (more negative = more Rep cleavage of the k-mer); sequences stand for … in CTCGTCCG…ACCGGAGA
[1] = system: T1, Rep nickase domain of Muscovy duck circovirus
T1 sequence (residues 1-111, tag not shown): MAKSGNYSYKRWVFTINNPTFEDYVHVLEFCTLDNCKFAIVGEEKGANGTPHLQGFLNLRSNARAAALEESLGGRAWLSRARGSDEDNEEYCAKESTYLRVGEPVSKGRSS
Procedure: (§1)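 A pool of 90-nt single-stranded DNAs with seven random bases just before the constant AC of the nick site (name = the seven bases) was cut by 3 µM recombinant His6-SUMO-tagged Rep nickase domain (300 nM DNA, 50 mM HEPES pH 8.0, 50 mM NaCl, 1 mM MnCl2, 1 h, 37 °C, three replicates). Uncut DNA was amplified and sequenced.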

[2] = system: T2, Rep nickase domain of banana bunchy top virus
T2 sequence (residues 1-94, tag not shown): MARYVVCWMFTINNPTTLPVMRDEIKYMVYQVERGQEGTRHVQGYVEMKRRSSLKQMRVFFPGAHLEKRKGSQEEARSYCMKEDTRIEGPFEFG
Procedure: as §1

[3] = system: T3, Rep nickase domain of cabbage leaf curl virus
T3 sequence (residues 1-116, tag not shown): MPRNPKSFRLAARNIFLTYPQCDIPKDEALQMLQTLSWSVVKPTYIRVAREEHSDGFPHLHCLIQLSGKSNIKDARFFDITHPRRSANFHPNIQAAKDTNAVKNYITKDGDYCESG
Procedure: as §1

[4] = system: T4, Rep nickase domain of chickpea chlorotic dwarf virus
T4 sequence (residues 1-124, tag not shown): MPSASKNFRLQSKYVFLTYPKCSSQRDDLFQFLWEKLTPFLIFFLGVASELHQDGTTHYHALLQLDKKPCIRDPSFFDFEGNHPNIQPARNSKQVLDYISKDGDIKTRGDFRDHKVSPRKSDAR
Procedure: as §1

[5] = system: T5, Rep nickase domain of faba bean necrotic yellows virus
T5 sequence (residues 1-98, tag not shown): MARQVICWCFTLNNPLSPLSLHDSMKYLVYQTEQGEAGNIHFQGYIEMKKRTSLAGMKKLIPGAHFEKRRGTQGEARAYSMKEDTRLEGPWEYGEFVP
Procedure: as §1

[6] = system: T6, Rep nickase domain of maize striate mosaic virus
T6 sequence (residues 1-117, tag not shown): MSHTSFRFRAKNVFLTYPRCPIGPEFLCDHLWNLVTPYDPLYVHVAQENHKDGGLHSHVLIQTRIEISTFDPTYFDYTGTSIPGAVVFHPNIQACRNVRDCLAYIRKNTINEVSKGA
Procedure: as §1

[7] = system: T7, Rep nickase domain of porcine circovirus 2
T7 sequence (residues 2-116, tag not shown): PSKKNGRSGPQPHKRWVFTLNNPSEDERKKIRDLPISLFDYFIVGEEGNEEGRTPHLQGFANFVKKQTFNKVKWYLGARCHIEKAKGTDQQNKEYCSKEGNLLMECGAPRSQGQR
Procedure: as §1

[8] = system: T8, Rep nickase domain of tomato golden mosaic virus
T8 sequence (residues 1-124, tag not shown): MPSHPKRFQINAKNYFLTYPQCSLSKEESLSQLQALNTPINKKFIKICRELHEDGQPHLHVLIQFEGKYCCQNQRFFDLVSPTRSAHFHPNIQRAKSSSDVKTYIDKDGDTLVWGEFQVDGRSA
Procedure: as §1

[9] = system: T9, Rep nickase domain of tomato yellow leaf curl virus
T9 sequence (residues 1-136, tag not shown): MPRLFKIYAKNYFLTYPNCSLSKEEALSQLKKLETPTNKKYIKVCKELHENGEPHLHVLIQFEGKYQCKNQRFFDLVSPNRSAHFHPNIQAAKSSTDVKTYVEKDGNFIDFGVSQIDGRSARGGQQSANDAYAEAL
Procedure: as §1

[10] = system: T10, Rep nickase domain of wheat dwarf virus
T10 sequence (residues 1-137, tag not shown): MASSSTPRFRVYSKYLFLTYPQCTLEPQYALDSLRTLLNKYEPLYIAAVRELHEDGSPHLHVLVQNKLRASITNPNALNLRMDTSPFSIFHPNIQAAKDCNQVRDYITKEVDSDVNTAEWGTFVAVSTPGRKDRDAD
Procedure: as §1

GAGTTTA was tested, and the “uncleaved DNA left (log2)” value [1] was -0.0331, the “uncleaved DNA left (log2)” value [2] was 0.0855 and the “uncleaved DNA left (log2)” value [3] was 0.202. The “uncleaved DNA left (log2)” value [4] was -0.58, the “uncleaved DNA left (log2)” value [5] was -0.0531 and the “uncleaved DNA left (log2)” value [6] was 1.02. For the same sequence, the “uncleaved DNA left (log2)” value [7] was -2.23, the “uncleaved DNA left (log2)” value [8] was 0.0674 and the “uncleaved DNA left (log2)” value [9] was 0.0677. For the same sequence, the “uncleaved DNA left (log2)” value [10] was 0.232.
In the case of GTCTTGT, the “uncleaved DNA left (log2)” value [1] is reported as 0.0249, the “uncleaved DNA left (log2)” value [2] is reported as -0.00281 and the “uncleaved DNA left (log2)” value [3] is reported as 0.328. The “uncleaved DNA left (log2)” value [4] was 0.661, the “uncleaved DNA left (log2)” value [5] was -0.032 and the “uncleaved DNA left (log2)” value [6] was 1.71. For the same sequence, the “uncleaved DNA left (log2)” value [7] was -0.0722, the “uncleaved DNA left (log2)” value [8] was 0.0545 and the “uncleaved DNA left (log2)” value [9] was -0.0268. The “uncleaved DNA left (log2)” value [10] was 0.0404.
With CGCTACA the “uncleaved DNA left (log2)” value [1] was -0.0497, the “uncleaved DNA left (log2)” value [2] was -0.0722 and the “uncleaved DNA left (log2)” value [3] was -0.307. For the same sequence, the “uncleaved DNA left (log2)” value [4] was -2.06, the “uncleaved DNA left (log2)” value [5] was -0.0272 and the “uncleaved DNA left (log2)” value [6] was -0.388. The “uncleaved DNA left (log2)” value [7] was -0.0908, the “uncleaved DNA left (log2)” value [8] was -0.0553 and the “uncleaved DNA left (log2)” value [9] was 0.124. The “uncleaved DNA left (log2)” value [10] was -0.15.
ATCTGCG was tested, and the “uncleaved DNA left (log2)” value [1] was -0.0233, the “uncleaved DNA left (log2)” value [2] was -0.143 and the “uncleaved DNA left (log2)” value [3] was 0.144. For the same sequence, the “uncleaved DNA left (log2)” value [4] was 1.28, the “uncleaved DNA left (log2)” value [5] was -0.0416 and the “uncleaved DNA left (log2)” value [6] was 1.36. For the same sequence, the “uncleaved DNA left (log2)” value [7] was 0.0481, the “uncleaved DNA left (log2)” value [8] was -0.114 and the “uncleaved DNA left (log2)” value [9] was -0.249. The “uncleaved DNA left (log2)” value [10] was -0.139.
With CAGCATA the “uncleaved DNA left (log2)” value [1] was -0.0216, the “uncleaved DNA left (log2)” value [2] was 0.0326 and the “uncleaved DNA left (log2)” value [3] was -0.345. The “uncleaved DNA left (log2)” value [4] was -2.36, the “uncleaved DNA left (log2)” value [5] was -0.0665 and the “uncleaved DNA left (log2)” value [6] was -0.646. The “uncleaved DNA left (log2)” value [7] was -1.01, the “uncleaved DNA left (log2)” value [8] was -0.0818 and the “uncleaved DNA left (log2)” value [9] was 0.0219. The “uncleaved DNA left (log2)” value [10] was -0.173.
With AGTTTCC the “uncleaved DNA left (log2)” value [1] was -1.25, the “uncleaved DNA left (log2)” value [2] was -0.0221 and the “uncleaved DNA left (log2)” value [3] was 0.0038. The “uncleaved DNA left (log2)” value [4] was -0.205, the “uncleaved DNA left (log2)” value [5] was -0.146 and the “uncleaved DNA left (log2)” value [6] was -0.0741. The “uncleaved DNA left (log2)” value [7] was -2.79, the “uncleaved DNA left (log2)” value [8] was -0.101 and the “uncleaved DNA left (log2)” value [9] was -0.127. The “uncleaved DNA left (log2)” value [10] was -0.165.
In the case of AGCGGCG, the “uncleaved DNA left (log2)” value [1] is reported as 0.0961, the “uncleaved DNA left (log2)” value [2] is reported as 0.113 and the “uncleaved DNA left (log2)” value [3] is reported as -0.244. The “uncleaved DNA left (log2)” value [4] was -0.0919, the “uncleaved DNA left (log2)” value [5] was 0.0351 and the “uncleaved DNA left (log2)” value [6] was -0.346. For the same sequence, the “uncleaved DNA left (log2)” value [7] was 0.0826, the “uncleaved DNA left (log2)” value [8] was 0.077 and the “uncleaved DNA left (log2)” value [9] was 0.0848. The “uncleaved DNA left (log2)” value [10] was -0.0152.
For GTTAAGG, the “uncleaved DNA left (log2)” value [1] was -0.0298, the “uncleaved DNA left (log2)” value [2] was -0.0313 and the “uncleaved DNA left (log2)” value [3] was 0.362. For the same sequence, the “uncleaved DNA left (log2)” value [4] was 1.33, the “uncleaved DNA left (log2)” value [5] was -0.0183 and the “uncleaved DNA left (log2)” value [6] was 1.7. For the same sequence, the “uncleaved DNA left (log2)” value [7] was 0.174, the “uncleaved DNA left (log2)” value [8] was 0.0631 and the “uncleaved DNA left (log2)” value [9] was -0.108. For the same sequence, the “uncleaved DNA left (log2)” value [10] was 0.0956.
With GATAACC the “uncleaved DNA left (log2)” value [1] was -0.0504, the “uncleaved DNA left (log2)” value [2] was 0.071 and the “uncleaved DNA left (log2)” value [3] was -0.0472. For the same sequence, the “uncleaved DNA left (log2)” value [4] was -0.217, the “uncleaved DNA left (log2)” value [5] was 0.0087 and the “uncleaved DNA left (log2)” value [6] was 0.421. The “uncleaved DNA left (log2)” value [7] was -0.226, the “uncleaved DNA left (log2)” value [8] was 0.0183 and the “uncleaved DNA left (log2)” value [9] was -0.00209. For the same sequence, the “uncleaved DNA left (log2)” value [10] was 0.101.
For TTTAGTA, the “uncleaved DNA left (log2)” value [1] was -0.0758, the “uncleaved DNA left (log2)” value [2] was -0.0292 and the “uncleaved DNA left (log2)” value [3] was 0.00535. For the same sequence, the “uncleaved DNA left (log2)” value [4] was -0.746, the “uncleaved DNA left (log2)” value [5] was -0.0869 and the “uncleaved DNA left (log2)” value [6] was -0.237. The “uncleaved DNA left (log2)” value [7] was -0.382, the “uncleaved DNA left (log2)” value [8] was 6.4e-05 and the “uncleaved DNA left (log2)” value [9] was -0.044. The “uncleaved DNA left (log2)” value [10] was -0.105.
For CATGGCA, the “uncleaved DNA left (log2)” value [1] was -0.104, the “uncleaved DNA left (log2)” value [2] was -0.0553 and the “uncleaved DNA left (log2)” value [3] was -0.619. For the same sequence, the “uncleaved DNA left (log2)” value [4] was -0.776, the “uncleaved DNA left (log2)” value [5] was -0.0519 and the “uncleaved DNA left (log2)” value [6] was -1.22. The “uncleaved DNA left (log2)” value [7] was -0.00629, the “uncleaved DNA left (log2)” value [8] was -0.181 and the “uncleaved DNA left (log2)” value [9] was -0.0672. The “uncleaved DNA left (log2)” value [10] was -0.103.
For GTAGTTA, the “uncleaved DNA left (log2)” value [1] was 0.145, the “uncleaved DNA left (log2)” value [2] was 0.0743 and the “uncleaved DNA left (log2)” value [3] was 0.252. For the same sequence, the “uncleaved DNA left (log2)” value [4] was 0.563, the “uncleaved DNA left (log2)” value [5] was -0.0926 and the “uncleaved DNA left (log2)” value [6] was 1.54. The “uncleaved DNA left (log2)” value [7] was 0.0235, the “uncleaved DNA left (log2)” value [8] was 0.0241 and the “uncleaved DNA left (log2)” value [9] was -0.0207. For the same sequence, the “uncleaved DNA left (log2)” value [10] was -0.142.
For TGGCGTA, the “uncleaved DNA left (log2)” value [1] was 0.0436, the “uncleaved DNA left (log2)” value [2] was 0.039 and the “uncleaved DNA left (log2)” value [3] was -0.43. For the same sequence, the “uncleaved DNA left (log2)” value [4] was -0.445, the “uncleaved DNA left (log2)” value [5] was -0.0838 and the “uncleaved DNA left (log2)” value [6] was -0.734. For the same sequence, the “uncleaved DNA left (log2)” value [7] was 0.00213, the “uncleaved DNA left (log2)” value [8] was 0.024 and the “uncleaved DNA left (log2)” value [9] was 0.0336. The “uncleaved DNA left (log2)” value [10] was -0.183.
With CGCTTAA the “uncleaved DNA left (log2)” value [1] was 0.0638, the “uncleaved DNA left (log2)” value [2] was -0.0245 and the “uncleaved DNA left (log2)” value [3] was -0.119. The “uncleaved DNA left (log2)” value [4] was -0.338, the “uncleaved DNA left (log2)” value [5] was -0.0227 and the “uncleaved DNA left (log2)” value [6] was -0.402. The “uncleaved DNA left (log2)” value [7] was -0.038, the “uncleaved DNA left (log2)” value [8] was -0.164 and the “uncleaved DNA left (log2)” value [9] was -0.0362. The “uncleaved DNA left (log2)” value [10] was 0.0265.
For TACTATG, the “uncleaved DNA left (log2)” value [1] was -0.0541, the “uncleaved DNA left (log2)” value [2] was -0.0656 and the “uncleaved DNA left (log2)” value [3] was -0.415. For the same sequence, the “uncleaved DNA left (log2)” value [4] was -1.05, the “uncleaved DNA left (log2)” value [5] was -0.0082 and the “uncleaved DNA left (log2)” value [6] was -0.962. The “uncleaved DNA left (log2)” value [7] was -0.136, the “uncleaved DNA left (log2)” value [8] was -0.131 and the “uncleaved DNA left (log2)” value [9] was -0.0226. For the same sequence, the “uncleaved DNA left (log2)” value [10] was -0.0774.
